Experimental data taken from US20090325873A1, “HUMAN GLP-1 MIMETIBODIES, COMPOSITIONS, METHODS AND USES” (CENTOCOR, INC., priority 2006, published 2009).

Experiments:
DIO mice = test: Correlation of pharmacodynamic activity (ipGTT) with plasma levels in DIO mice; assay type: in vivo; details: single iv 1 mg/kg
Description: Materials/Methods. Animals/Treatments: C57B1/6J mice were started at 4 weeks of age on a diet containing 60.9% fat (Purina TestDiets 58126). At the time of the study start, all of the animals had achieved three consecutive weeks of diabetic fasting blood glucose values (>120 mg/dL). DIO mice were randomized into treatment groups based on fasting blood glucose and were dosed (iv) with GLP-1 MMB of SEQ ID NO 4 (1 mg/kg, lot #8833173)) or PBS. At various time post-dosing, glucose tolerance tests were performed and blood samples were collected to measure GLP-1 MMB of SEQ ID NO 4 plasma levels as described below. Glucose tolerance test (ipGTT): Mice were fasted overnight (16 hr) before the test. In the morning a fasting glucose was measured via tail snips using a hand-held glucometer (LifeScan). […] Blood glucose was measured after 15, 30, 60, 90 and 120 min using tail vein blood. […] The concentration of intact GLP-1 MMB of SEQ ID NO 4 was measured using a mesoscale discovery (MSD) technology. […] A ruthenium labeled monoclonal antibody recognizing the linker region of the mimetibody (CNTO712) was added for detection, and the luminescence responses were determined using the MSD sector imager 6000 reader. GLP-1 MMB of SEQ ID NO 4 level was calculated using sigmoidal dose-response curve (GraphPad PRISM). […] The area under the curve (AUC) was calculated for each individual ipGTT curve (FIG. 26). […]

GLP-1R−/− mice = test: Food intake in GLP-1R−/− mice; assay type: in vivo; details: single iv GLP-1 MMB 1 mg/kg, exendin-4 0.07 mg/kg
wild type mice = test: Gastric emptying in wild type mice; assay type: in vivo; details: iv GLP-1 MMB 1 mg/kg, exendin-4 0.07 mg/kg
Description: Materials/Methods: Animals: Male GLP-1R−/− and age matched wild type mice were randomized into three treatment groups (n=5) based on body weight and fasting blood glucose. […] The next morning mice were re-fed for 1 h, food intake was recorded and the mice were deprived of food for the rest of the study. Mice were dosed intravenously as discussed above. Two hours post-dosing mice were euthanized. The stomach was exposed by laparotomy, ligated at both the pylorus and cardia and removed. The stomach content wet weight was measured. Equation 1 was used to calculate the percent of food remaining in the stomach.
(Stomach Content Wet Weight(g)/Food Intake(g))*100 Equation (1)

rat GLP-1 receptor = molecular target: T1, rat GLP-1 receptor (Rattus norvegicus, UniProt P32301); test: LANCE cAMP assay in INS-1E cells; assay type: cell-based; details: fit to a hyperbola
T1 construct: INS-1E cells, a rat insulinoma cell line expressing the rat GLP-1 receptor; endogenous in cells; host or cells: INS-1E rat insulinoma cells
T1 sequence (P32301 22-463): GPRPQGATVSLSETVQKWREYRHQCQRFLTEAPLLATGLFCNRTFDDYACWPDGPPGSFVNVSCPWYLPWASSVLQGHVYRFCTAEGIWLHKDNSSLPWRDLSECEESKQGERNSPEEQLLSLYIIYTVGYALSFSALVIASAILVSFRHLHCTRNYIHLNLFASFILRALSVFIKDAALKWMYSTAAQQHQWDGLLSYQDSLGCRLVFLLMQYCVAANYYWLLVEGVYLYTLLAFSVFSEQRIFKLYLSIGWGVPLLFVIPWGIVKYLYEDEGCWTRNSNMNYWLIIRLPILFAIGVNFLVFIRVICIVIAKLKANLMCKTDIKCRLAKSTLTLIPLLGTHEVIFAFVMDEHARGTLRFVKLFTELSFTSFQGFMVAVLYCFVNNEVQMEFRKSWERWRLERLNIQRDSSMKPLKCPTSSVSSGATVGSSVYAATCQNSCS

[1] = test system: diet-induced obese (DIO) C57B1/6J mice; test: ipGTT in diet-induced obese (DIO) mice, acute pharmacodynamic study; assay type: in vivo; details: for ED50 (AUC of ipGTT fit to a hyperbola): DIO mice, i.v.
Description: Materials/Methods: D-glucose was purchased from Sigma. The studies described below used diet-induced obese (DIO) C57B1/6J mice that were started on a diet containing 60.9% fat (Purina TestDiets 58126) at 4 weeks of age. All animals achieved three consecutive weeks of diabetic fasting blood glucose values (>120 mg/dL) prior to their inclusion in the study. ipGTT: Thirty-five mice were fasted overnight (16 hr) and were randomized into 7 groups (n=5) based upon their fasting glucose concentrations. Ten minutes prior to the glucose tolerance test, mice were dosed i.v. with PBS or GLP1 MMB of SEQ ID NO 4 (0.003, 0.01, 0.03, 0.1, 0.3, and 1.0 mg/kg). Five minutes prior to the glucose tolerance test, a fasting glucose measurement was made from tail vein blood. At T=0 min, mice were dosed i.p. with D-glucose (1.0 mg/g). Blood glucose levels were measured at 15, 30, 60, 90, 120, 150 and 180 min using tail vein blood.

B1: GLP-1 MMB of SEQ ID NO 4: GLP-1 mimetibody of SEQ ID NO 4 (protein, listed as Homo sapiens)
chain: HSEGTFTSDVSSYLEGQAAKEFIEWLVKGRGGGSGGGSGTLVTNSS[human IgG4 Fc with S228P F234A L235A (EU numbers) omitted]
In the case of B1, the “time post injection with statistically significant reduction in the ipGTT AUC relative to the negative control” value (DIO mice) is reported as “up to 6 days”, the “24 hour cumulative food intake” value (GLP-1R−/− mice) is reported as “no effect on food intake” and the “stomach content (percent of food remaining) 2 h after dosing vs CNTO1996” value (wild type mice) is reported as “statistically significant increase in stomach content”. For the same molecule, the “maximal amount of secreted cAMP” value (rat GLP-1 receptor) was 48.3 nM, the “area under the curve of the ipGTT relative to the PBS-treated group” value ([1]; 0.01, 0.03, 0.1, 0.3, 1 mg/kg i.v. ten minutes prior to the test) was “significantly reduced in a dose dependent manner” and the “ED50 (AUC of ipGTT fit to a hyperbola)” value [1] was 0.014 mg/kg. The “ED50 (AUC of ipGTT fit to a hyperbola)” value ([1]; listed as GLP-1MMB) was 0.015 mg/kg.
